Measurements as given in the CheMixHub ionic liquid set.
The source gives many values for each of these; only a part stands here.

Assay: xn = mol fraction of the nth substance listed
Settings: 100 kPa

CC[n+]1ccn(C)c1.N#C[N-]C#N + OCC(F)(F)F + CCO
viscosity [mPa·s]
Settings | 318.15 K | 323.15 K
x1 = 0.0355, x2 = 0.8508 | – | 0.1
x1 = 0.0692, x2 = 0.8058 | – | 0.5
x1 = 0.1059, x2 = 0.7569 | – | 0.9
x1 = 0.1341, x2 = 0.7174 | – | 1.2
x1 = 0.1703, x2 = 0.668 | 1.68 | 1.55
x1 = 0.2026, x2 = 0.6226 | 1.99 | 1.84
x1 = 0.2373, x2 = 0.574 | 2.31 | 2.13
x1 = 0.2705, x2 = 0.5266 | 2.59 | 2.39
x1 = 0.3059, x2 = 0.4761 | 2.88 | 2.66
x1 = 0.3367, x2 = 0.4558 | 3.11 | 2.86
x1 = 0.3741, x2 = 0.4288 | 3.38 | 3.1
x1 = 0.4093, x2 = 0.4055 | 3.61 | 3.31
x1 = 0.4361, x2 = 0.3894 | 3.78 | 3.46
x1 = 0.4751, x2 = 0.3581 | 4.02 | 3.67
x1 = 0.5091, x2 = 0.3393 | 4.21 | 3.85
x1 = 0.539, x2 = 0.314 | 4.37 | 3.99
x1 = 0.576, x2 = 0.2854 | 4.57 | 4.16
x1 = 0.6046, x2 = 0.2689 | 4.71 | 4.29
x1 = 0.6344, x2 = 0.2517 | 4.86 | 4.43
x1 = 0.673, x2 = 0.2236 | 5.04 | 4.6
x1 = 0.7094, x2 = 0.2009 | 5.22 | 4.75
x1 = 0.7331, x2 = 0.1948 | 5.33 | 4.86
x1 = 0.7722, x2 = 0.1661 | 5.51 | 5.03
x1 = 0.8061, x2 = 0.1434 | 5.67 | 5.19

CCCC[n+]1ccn(C)c1.F[B-](F)(F)F + O
x1 = 0.6023
Settings | viscosity [mPa·s]
318 K | 12.1
323 K | 10.66
